# In all, about 2,300 sequences were measured (“median log2 fold change of GCK-ALFA target abundance (FLAG IP / Myc IP barcode read proportion)”: median about 0.095, lowest 2% from about -0.47 on). This is one part of the list.
# B1: LC3A_3_1810 (protein)
# chain: MEERIERALEELREAGASEETLEAVREAVELLLEKGYEEAAETFIELALELKHLPSELLLEFAQEVKELVETSDLSEEEITEEIKRIASTVRNEGEIIEL
# B2: LC3A_free_46_2293 (protein)
# chain: YLVEIDVDVDGLTEEEAKEFVKEFKEKLEEIAKKYGVEVEVEYKISKNEDGTYSVEIKVKVKAPTLEIAQKVKNEIIDAIDELAEKYGASYIISYEIKEA
# B3: LC3A_3_1786 (protein)
# chain: MEEKKEELLKELKEAGKSEETIEAAREVLDLLIEKGYEEAFETFIEELRKLIDFPDDILLDMLKEVLELLKTNDWSEEEIKKKIKELAELARNEAEIEEL
# B4: LC3A_28_1228 (protein)
# chain: SHVDEEIERAEAQAEAALAAGEEALITVKVTKETTVEDAKRLMEALERIVERAKGLPAISIVVDVEAGVSQEVIDTIAELGERIEKKFPNVTVIIALDEN
# B5: LC3A_28_1073 (protein)
# chain: SATEKENEALLAEAKAGREAGEPVVITVVIDENDTDEDIELKLKTIEEIAEILKDVEGAAIIIDLEGERAKSHLDEVADKADELEEKYPNLTVIIALDDE
# B6: LC3A_147_511 (protein)
# chain: YEVEVDVDIITKDAEEEVIEEFKEIAEELKKKGYEVELEIEVEELENGITYIHVKITVKTETEEEAKEVANYILDKIDEIEEKLKDKILGSMISVEIIKK
# B7: LC3A_28_1237 (protein)
# chain: NAVEKQIKEAKKEVEKAVAEGKEALVTLTVTKDTTEEDVEKIIKAMKEIAELGKTLPALDIIVDVEKGVKQEHIDKLADAAEEIEEKYPNVTVIIALEEE
# B8: LC3A_3_1442 (protein)
# chain: SEEILERAREVAEEIGLSEEAIEAVLELVRRALEAGEEEEAERLIEVLAESKDVESEEVLEIAEEALRRIEEEGVSMKEAIEEFIEELRVLRLEKEIEEL
# B9: LC3A_17_554 (protein)
# chain: SEELKEEIKRLLEELEALVEELEKYDPEAAKELRKKLEEAKKALEEGDLEEALKILKEVAEEAAERWDSLEHIDPERMSILSMEAEGLLIEALSLEEKLE
# B10: LC3A_3_1788 (protein)
# chain: MEAARAALLAALRAAGHSPETIAAVEATAAALIARGYEAAFATFVAEMRRLLDAPDELLLALAQSVLARLETEDVSEEELTAFIREEARLAALESEIEEL
# B11: LC3A_28_673 (protein)
# chain: SPLEEALEKALKKAKEAAEKGEPVVITIDVPGDATPEEVERLIEALEEIAEILKDVPGSAIIINLDGDLDQEHRDRLIDAADEINEKYPNVTVIVALEEK
# B12: LC3A_28_719 (protein)
# chain: SMLEKSLKKALEEAKKAAERGEEVVIEIEVPGDATEEDIEKVIETLEEIAEILKDLPSTAIIIDVDGKVKQEHIDKLADHAEEIEKKYPNVTVIIALDEN
# B13: LC3A_free_39_2183 (protein)
# chain: SSEETKKLKEELLKLAEEEGEETKELAEKLIELIGEELERIKRLLELMKKLKEAGVDLKEALKEALELAEELKKKGKSKEEIAEAVLELMQDKYNLIPID
# B14: LC3A_3_1864 (protein)
# chain: MEEIKEKILELLKKLGRSEETIKAAEELANALIERGYLEALKTLLEELEKLKDVDDEILLDMFKDILEALKTKNLNEEETIKLIKEEATIALNEHEIEEL
# B15: LC3A_28_799 (protein)
# chain: SKVKENVDKALEEARAQIAAGEPVFVEINIPKDATKEEIDYVAEAIREIARAAKAAGLPAVDIVINNENNEEAIKKISETEDKLRAEGLPINVVIAIDEP
# B16: LC3A_free_8_2506 (protein)
# chain: MREEVRRAAVEGLDRLEEELVAKAKELGLSRLDILELELEIGSVIAEIHSLDDASPEEILAATREGLDRVIALAAELSPELAALARRLGAEILAELEALL
# B17: LC3A_3_1509 (protein)
# chain: MEELLEEARELLEKFGASEEVIEKFLEALRLLLERGYEEAAKTLIELLKKGKDWSNEVLLAFAEDVLELLETKDLSEEELIEEIKKIFEIADNDQEIEEL
# B18: LC3A_28_1024 (protein)
# chain: SKAEKLVEEARKKAEEQKAKGEPIYIEISVDGSTTLEDAKLIVEGIEEIAEEFKDEKGVAILIDVSASVSQEVIDLLAKGAEEIEKKYPNVSVIIALEER
# B19: LC3A_free_8_2457 (protein)
# chain: DKDKLVTAISKLYDEFEEKVKKEMEKLGLSQSDINYISVLIGEAEMAVRDTAIDDPEKTLAVAKEEFEKIIEEAKKLSEELAEFVKKLAEEVLKKIEELL
# Target: MAP1LC3A, Q9H492
# Assay: median log2 fold change of GCK-ALFA target abundance (FLAG IP / Myc IP barcode read proportion) (log2 ratio); each designed protein is fused to an ALFA-tag nanobody in HEK293 cells to bring the named protein to FLAG-tagged glucokinase (GCK); Myc marks an untargeted standard; higher = target protein stabilised (more abundant)
# Settings: target protein: 3xFLAG-MCP-GCK-ALFA reporter; HEK293 landing pad (RPLP)
# Procedure, shortened: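 HEK293 landing-pad cells received a recombined binder library fused to the ALFA nanobody and were induced with 2 μg mL^−1 doxycycline, then transfected with a plasmid encoding a FLAG-tagged target and a Myc-tagged standard. Lysates were collected after 48 h for anti-FLAG and anti-Myc immunoprecipitation, and the circular RNA barcodes were reverse transcribed, amplified and sequenced. Target abundance for each binder is the median log2 ratio of FLAG to Myc barcode read proportions. Barcodes had to reach a proportion of at least 10^−7 in both replicates, each binder needed at least 3 barcodes per replicate, a pseudocount of 10^−6 was applied, and the two replicates were pooled.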
row,Binder,median log2 fold change
1,B1,0.209
2,B2,0.122
3,B3,0.313
4,B4,0.00959
5,B5,-0.314
6,B6,-0.745
7,B7,0.0668
8,B8,0.133
9,B9,0.24
10,B10,0.235
11,B11,0.214
12,B12,-0.111
13,B13,0.066
14,B14,0.325
15,B15,0.123
16,B16,-0.0254
17,B17,0.0569
18,B18,0.019
19,B19,0.413
